# From patent US4204038A, “Process for preparing antibiotics MA 144-M1 and MA 144-M2” (Zaidan Hojin Biseibutsu Kagaku Kenkyu Kai, priority 1976, dated 1980)
# Key:
# L1210 cells [1] = assay: DNA synthesis in cultured L1210 cells; type: cell-based, mice; details: Mus musculus, 14C-precursor, read-out: ID50, DNA synthesis
# Method: (§1) In this experiment, L1210 cells were inoculated in RPMI 1640 medium (Nissui, Roswell Park Memorial Institute 1640) containing 10% calf serum and cultivated at 37° C. for 3 days in a CO2 incubator, and MA 144-M1, MA 144-M2 and ^14 C-precursor were added at various concentrations. Effects on the synthesis of protein, RNA and DNA were indicated by the 50% inhibition concentration (μg./ml.) as shown in the following table.
# L1210 cells [2] = assay: RNA synthesis in cultured L1210 cells; type: cell-based, mice; details: Mus musculus, 14C-precursor, read-out: ID50, RNA synthesis
# Method: as §1
structure (smiles),measurement,setting,value
CCC1(O)CC(OC2CC(N(C)C)C(OC3CC(O)C(OC4CCC(O)C(C)O4)C(C)O3)C(C)O2)c2c(cc3c(c2O)C(=O)c2c(O)ccc(O)c2C3=O)C1C(=O)OC (centres unmarked) [MA 144-M2],IC50,L1210 cells [1],1 µg/mL
same,IC50,L1210 cells [2],0.5 µg/mL
